Data: PubChem BioAssay AID504339 (National Center for Advancing Translational Sciences (NCATS), 2011)
About 17,000 (4.4%) of roughly 390,000 compounds were called active. Inconclusive results, whose numbers are uncertain, are shown with a selection of clear calls. Calls come from the whole dose curve; as a rule, active = well fitted inhibition curve with a large enough effect; inconclusive = small, poorly fitted or top-dose-only effect; inactive = no such curve, though single readings can be large or run the other way. Potencies beside an inconclusive call are fits to weak or partial responses and may not hold up.

The molecules below were run against Lysine-specific demethylase 4A (Homo sapiens) (UniProt O75164) (assay: qHTS Assay for Inhibitors of JMJD2A-Tudor Domain). Conditions: AlphaScreen JMJD2A-Tudor / H3K4me3 peptide binding; activity change, negative = inhibition: at 114 µM (top of the series).
% is set by controls: 0 for no effect and ±100 for the full control effect; potency is the fitted concentration of half-maximal effect; tags give direction and shape of the fitted curve.
Note: nearly all actives have a fitted effect of over 50% in size.

Chain of UniProt O75164 (O75164 whole entry, looked up, the tested form may be a part): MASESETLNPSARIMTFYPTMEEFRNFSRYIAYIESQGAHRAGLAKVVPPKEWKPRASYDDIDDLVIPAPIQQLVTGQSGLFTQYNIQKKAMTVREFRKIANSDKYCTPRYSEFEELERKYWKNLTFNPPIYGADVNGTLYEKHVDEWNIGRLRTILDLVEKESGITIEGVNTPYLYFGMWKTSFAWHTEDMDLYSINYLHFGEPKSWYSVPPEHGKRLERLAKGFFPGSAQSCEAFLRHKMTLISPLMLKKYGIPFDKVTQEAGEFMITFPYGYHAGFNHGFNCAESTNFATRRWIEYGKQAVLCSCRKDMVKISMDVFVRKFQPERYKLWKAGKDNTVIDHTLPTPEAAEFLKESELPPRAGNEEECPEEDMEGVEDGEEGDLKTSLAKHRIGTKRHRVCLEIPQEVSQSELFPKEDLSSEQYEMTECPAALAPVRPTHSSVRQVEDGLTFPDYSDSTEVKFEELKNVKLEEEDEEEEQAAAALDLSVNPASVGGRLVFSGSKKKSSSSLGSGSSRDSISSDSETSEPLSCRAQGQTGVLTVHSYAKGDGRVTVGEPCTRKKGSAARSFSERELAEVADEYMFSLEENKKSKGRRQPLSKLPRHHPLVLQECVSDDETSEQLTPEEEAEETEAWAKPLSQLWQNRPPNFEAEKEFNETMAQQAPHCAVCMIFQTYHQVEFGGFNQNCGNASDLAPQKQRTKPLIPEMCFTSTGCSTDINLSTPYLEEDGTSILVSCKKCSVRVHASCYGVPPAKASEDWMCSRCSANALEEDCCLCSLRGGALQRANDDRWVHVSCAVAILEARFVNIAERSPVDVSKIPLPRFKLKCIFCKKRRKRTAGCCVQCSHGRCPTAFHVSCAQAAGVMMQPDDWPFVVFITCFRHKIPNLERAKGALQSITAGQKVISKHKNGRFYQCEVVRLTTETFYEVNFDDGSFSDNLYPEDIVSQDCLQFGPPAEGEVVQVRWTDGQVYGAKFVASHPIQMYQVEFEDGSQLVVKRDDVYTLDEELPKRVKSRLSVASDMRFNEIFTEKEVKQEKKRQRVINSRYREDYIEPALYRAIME

Compound | Potency | activity change, negative = inhibition
Cc1cc(C(=O)O)ccc1N=Cc1c(O)ccc2ccccc12 | inconclusive: 14.1 µM [inhibitor, partial curve] | –
COCCCN1C(=O)C(O)=C(C(C)=O)C1c1cccc(F)c1 (centres undefined) | inconclusive: 89.1 µM [inhibitor, single point] | –
CCOC(=O)Cc1csc(NC(=O)Cc2cccs2)n1 | active: 44.7 µM | –
Cc1cc(/C=C2/SC(=O)N(CC(=O)N3CCCC3)C2=O)c(C)n1C | – | inactive: 69.7%
CN1C(=O)/C(=C/c2cc(N=Nc3ccccc3)ccc2O)SC1=S | active: 5.01 µM | –
Nc1c(Cl)cc(C2=NCCn3c2c2ccc(C(F)(F)F)cc2[n+]3[O-])cc1Cl | active: 4.47 µM | –
COc1ccc(-c2c(C3C4C=CCCC4(C)C(=O)N3Cc3ccccc3)ccc3ccccc23)cc1OC (centres undefined) | inconclusive: 17.8 µM [inhibitor, full curve, poor fit] | –
Cc1ccc(C2NNC(=O)C2NC(=O)c2ccccc2)cc1 (centres undefined) | inconclusive: 56.2 µM [inhibitor, partial curve] | –
Cc1ccc2[nH]c3c(c2c1)CCCC3NCCO (centres undefined) | inconclusive: 15.8 µM [inhibitor, partial curve] | –
COc1cc(C(c2c(C)[nH][nH]c2=O)c2c(C)[nH][nH]c2=O)ccc1OC(=O)c1ccccc1F | inconclusive: 11.2 µM [inhibitor, partial curve] | –
COc1cccc2sc(Nc3nnc(-c4ccccc4Cl)o3)nc12 | inconclusive: 7.08 µM [inhibitor, full curve] | –
CCOc1ccc(NC(=S)NNC(=O)c2ccc(Br)cc2)cc1 | inconclusive: 63.1 µM [inhibitor, partial curve] | –
Oc1ccccc1N1CCN(C(=S)NCCc2ccccc2)CC1 | – | inactive: -31%
S=c1[nH]nc(Cc2ccccc2)n1Cc1ccco1 | active: 3.98 µM | –
Cc1[nH]c2ccccc2c1/C=N/NC(=O)c1cccs1 | inconclusive: 50.1 µM [inhibitor, partial curve] | –
COC(=O)C1=C(C)N(Cc2ccccc2)C(=NCCCCO)N[C@H]1c1ccccc1 | inconclusive: 39.8 µM [inhibitor, single point] | –
Cc1ccc(OCC(=O)NN=C2c3ccccc3-c3ccccc32)cc1 | inconclusive: 56.2 µM [inhibitor, partial curve] | –
O=C(COC(=O)c1ccc[nH]c1=O)Nc1cc(S(=O)(=O)N2CCCCC2)ccc1Cl | active: 89.1 µM | –
CC1(C)OC(=O)C2(Cc3ccccc3N3CCCC32)C(=O)O1 (centres undefined) | inconclusive: 50.1 µM [inhibitor, partial curve] | –
Cc1ccc(S(=O)(=O)N(C)C)cc1NC(=S)NNC(=O)C(N)=O | – | inactive: -24.1% [at 11.4 µM]
Fc1ccc(-n2ncc3c(Nc4ccc(Oc5ccccc5)cc4)ncnc32)cc1 | – | inactive: -4.89%
COc1cc2c(cc1OC)CN(Cc1nc3ccsc3c(=O)[nH]1)CC2 | inconclusive: 79.4 µM [inhibitor, partial curve] | –
N#CC1=C(S)N(c2ccccc2)C(c2ccc(-c3ccccc3Cl)o2)NC1=O (centres undefined) | inconclusive: 79.4 µM [inhibitor, partial curve] | –

Compound | Potency | activity change, negative = inhibition
CCC(=O)Nc1ccc(Cl)c(NC(=O)c2ccc([N+](=O)[O-])cc2)c1 | inconclusive: 10 µM [inhibitor, partial curve] | –
CSc1ccc(CN(C)CCc2ccccn2)cc1 | active: 25.1 µM | –
O=C(Nc1ccncc1)c1cccc(S(=O)(=O)N2CCN(c3ccc(F)cc3)CC2)c1 | inconclusive: 15.8 µM [inhibitor, full curve] | –
COc1ccc(NC(=S)N(CCc2nc3cc(C)c(C)cc3[nH]2)Cc2cccnc2)cc1 | inconclusive: 39.8 µM [inhibitor, partial curve] | –
S=C(Cc1ccccc1)Nc1ccccc1 | inconclusive: 3.98 µM [inhibitor, single point] | –
CC(C)(CC(=O)O)CC(=O)NCc1c(Cl)cccc1Sc1ccc(Cl)cc1 | – | inactive: -0.671%
CCc1nnc(NS(=O)(=O)c2ccc(N/C=C/C(=O)c3ccc(OC)cc3)cc2)s1 | inconclusive: 79.4 µM [inhibitor, partial curve] | –
Cc1ccc(C)c(S(=O)(=O)N2CCCC2CNC(=O)c2ccc([N+](=O)[O-])cc2)c1 (centres undefined) | inconclusive: 56.2 µM [inhibitor, partial curve] | –
CCOc1ccc(N=C2NN=C(c3cc(C)n(CC4CCCO4)c3C)CS2)cc1 (centres undefined) | inconclusive: 28.2 µM [inhibitor, partial curve] | –
COc1ccc(N2CCN(c3oc(COc4ccc(Cl)cc4)nc3C#N)CC2)cc1 | inconclusive: 44.7 µM [inhibitor, partial curve] | –
Cc1ccccc1-n1c(Cc2cccs2)n[nH]c1=S | active: 8.91 µM | –
CCC(C)NC(=S)N1CCN(C)CC1 (centres undefined) | inconclusive: 0.631 µM [inhibitor, partial curve, poor fit] | –
O=C(Nc1cccc(F)c1)C1CC(=O)N(c2ccc(Br)cc2)C1 (centres undefined) | – | inactive: -19.2% [at 11.4 µM]
O=C(NCc1ccncc1)Nc1ccc2c(c1)OCO2 | – | inactive: -29.2%
CC1=C(C(=O)O)N2C(=O)C(NC(=O)c3nn(C)c(C)c3Cl)C2SC1 (centres undefined) | inconclusive: 79.4 µM [inhibitor, single point] | –
Cc1cccn2c(=O)c(/C=C(\C#N)C(N)=O)c(N3CCN(c4cccc(Cl)c4)CC3)nc12 | inconclusive: 10 µM [inhibitor, full curve] | –
COc1cc(OC)cc(-c2nnc(SCC(=O)N3CCC(C)CC3)o2)c1 | – | inactive: -2.05%
CC(=O)c1ccc(NC(=O)Cn2c(-n3nc(C)cc3C)nc(C)cc2=O)cc1 | inconclusive: 50.1 µM [inhibitor, partial curve] | –
O=C1Nc2ccc(F)cc2C12Nc1ccccc1-c1nnc(SCc3ccccc3Cl)nc1O2 (centres undefined) | inconclusive: 56.2 µM [inhibitor, partial curve] | –
COC(=O)c1ccc(N2CCN(S(=O)(=O)c3ccc(C)cc3)CC2)c([N+](=O)[O-])c1 | inconclusive: 11.2 µM [inhibitor, full curve] | –
Cc1cc(NC(=O)CSc2cn(CCNC(=O)c3ccc(F)cc3)c3ccccc23)no1 | inconclusive: 79.4 µM [inhibitor, partial curve] | –
Oc1ccc(N=Cc2c(O)ccc3ccccc23)cc1 | inconclusive: 63.1 µM [inhibitor, partial curve, poor fit] | –
CC(C)(C)NC(=O)CN(Cc1ccc2c(c1)OCO2)C(=O)CNS(=O)(=O)c1ccccc1 | active: 79.4 µM | –

Compound | Potency | activity change, negative = inhibition
CCN(CC)C(=O)[C@H]1CC(CC(=O)NCC23CC4CC(CC(C4)C2)C3)C(=O)N2CCc3c([nH]c4ccc(OC)cc34)[C@]12C (some centres undefined) | inconclusive: 56.2 µM [inhibitor, partial curve] | –
COCCN=c1scc(-c2cccs2)n1/N=C/c1ccc(O)c(O)c1O | active: 8.91 µM | –
CN1/C(=C\C=C2/SC(=S)N(CC(=O)O)C2=O)C(C)(C)c2ccccc21 | – | inconclusive: -53.3% [inhibitor]
Cc1ccccc1-n1c(Cn2c(=O)sc3ccccc32)nnc1SCC(=O)NCC1CCCO1 (centres undefined) | inconclusive: 25.1 µM [inhibitor, full curve] | –
CC(C)(C)c1ccc(OCCSc2nc(-c3cccs3)nc3cc(=O)[nH]n23)cc1 | – | inactive: -9.42%
O=C(CSc1nc2ccccc2c(=O)n1Cc1ccco1)N1CCCCCC1 | inconclusive: 70.8 µM [inhibitor, partial curve] | –
C[C@@H](OC(=O)c1[nH]cnc1C(=O)NCc1ccc(CNC(=O)OC(C)(C)C)cc1)c1ccccc1 | inconclusive: 50.1 µM [inhibitor, partial curve] | –
C=CCN(CC(O)c1cccc([N+](=O)[O-])c1)C(C)CCc1ccccc1 (centres undefined) | – | inactive: -11%
Cc1ccc(-n2c(N)c(Br)c(=O)[nH]c2=O)cc1C | – | inactive: -15.1%
CCOc1ccc(N2C(=O)c3cccnc3C2=O)cc1 | inconclusive: 22.4 µM [inhibitor, partial curve] | –
O=C(Nc1ccc(N2CCCCCC2)cc1)c1ccccc1Cl | active: 31.6 µM | –
COc1cccc(CC2(CO)CCCN(CC3=Cc4cc(OC)ccc4OC3)C2)c1 (centres undefined) | inconclusive: 56.2 µM [inhibitor, partial curve] | –
NC(=S)N=Nc1c(O)cc(O)c2[nH]c(=O)ccc12 | active: 50.1 µM | –
Cc1ccc(NC(=O)C2CCCN(S(=O)(=O)c3cnc[nH]3)C2)c(Br)c1 (centres undefined) | inconclusive: 22.4 µM [inhibitor, full curve, poor fit] | –
COc1ccccc1CN1CCN(C(=O)c2ccncc2)CC1 | active: 7.94 µM | –
CNc1nc2c(c(=O)n(C)c(=O)n2C)n1Cc1ccccc1 | – | inactive: -23.4%
CCc1ccc(N2C(=O)c3ccc4c5c(ccc(c35)C2=O)CC4)cc1 | inconclusive: 79.4 µM [inhibitor, partial curve] | –
O=[N+]([O-])c1cccc(/C=N/n2cnnc2)c1O | – | inactive: -16%
COc1ccc(OCCOC(=O)CNS(=O)(=O)c2ccc(SC)c([N+](=O)[O-])c2)cc1 | – | inactive: -22.3%
Cc1cc(=O)[nH]c(=S)n1-c1ccccc1 | inconclusive: 89.1 µM [inhibitor, single point] | –
Cc1ccc(C)c(N2CCN(C(=O)c3cc(S(=O)(=O)N4CCCCC4)cn3C)CC2)c1 | inconclusive: 56.2 µM [inhibitor, partial curve] | –
COc1ccc2[nH]cc(CCNC(=O)Nc3ccc(F)cc3)c2c1 | inconclusive: 50.1 µM [inhibitor, partial curve] | –
Cc1ccc(-n2c(C)cc(C(=O)COc3cccnc3[N+](=O)[O-])c2C)cc1 | inconclusive: 17.8 µM [inhibitor, full curve, poor fit] | –
